The text below walks through data of PubChem BioAssay AID1347073 (National Center for Advancing Translational Sciences (NCATS), 2019).

The campaign covered roughly 45,000 compounds. About 200 (0.44%) were called active. Roughly 7% stayed inconclusive and do not appear here. Calls follow the shape of the dose curve; as a rule, active = well fitted activation curve with a large enough effect; inconclusive = small, poorly fitted or top-dose-only effect; inactive = no such curve, though single readings can be large or run the other way. Some of the results follow.

A short description of the assay: qHTS of TDP-43 Inhibitors: NCGC Sytravon Library Screen. Also: 0% is about no effect; nearly all actives have a fitted effect of over 55% in size. To be noted: yeast TDP-43 toxicity rescue, BacTiter-Glo growth, 24 h; series mostly up to 46.1 µM; growth rescue (activation): at the top concentration. A digest of the protocol:
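TDP-43-expressing yeast, pregrown in raffinose, seeded at OD600 0.02 in galactose medium with compound for 24 hr at 30 deg C. Growth read by BacTiter-Glo luminescence, so rescue of toxicity appears as activation.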
A general note: In qHTS, concentration-response curves come from the screen itself.
As to `Cn1cc(CN2CCC(C(O)c3cccs3)CC2)c(-c2ccccc2F)n1` (centres undefined), the “growth rescue (activation)” value was inactive: 32.2%.
As for `O=C(NCc1cccc(Cl)c1)c1cc2c(s1)-c1ccccc1SC2`, the “growth rescue (activation)” value is inactive: 16.4%.
In the case of `Cc1ccc(C(C)(C)C)cc1S(=O)(=O)Nc1cccc(S(=O)(=O)NC2=NCCC2)c1`, the “growth rescue (activation)” value is inactive: 11.1%.
In the case of `CC(NC(=O)c1ccccc1)c1nnc(SCC(=O)NC2=NCCS2)n1C` (centres undefined), the “growth rescue (activation)” value was inactive: -15.2%.
On to `Cc1ccnn1-c1ccc(C(=O)OCC(=O)Nc2ccc(F)cc2)cc1`, for which the “growth rescue (activation)” value is inactive: -4.51%.
For `Cc1ccc(C(=O)NC2CC(C)(C)NC(C)(C)C2)cc1`, the “growth rescue (activation)” value was inactive: 7.06%.
The same measure for `COC(=O)c1ccc(NC(=O)COc2ccc3c(c2)OCO3)cc1`: inactive: 7.96%; for `CCOc1ccccc1NC(=O)[C@@H](NC(=O)c1cccc(S(=O)(=O)N2CCOCC2)c1)C(C)C`: inactive: 9.13%; for `Cc1ccc2c(c1)C(c1ccc([N+](=O)[O-])cc1)=NNC(c1ccc(Br)cc1)=N2`: inactive: 23%.
Under `O=C(NCc1ccc(Cl)cc1)C1CC(O)CN1S(=O)(=O)c1ccc(Cl)cc1` (centres undefined) stands inactive: -6.91%; under `CCCc1nnc(NC(=O)CCC(=O)N2CCN(S(=O)(=O)c3ccc(C)cc3)CC2)s1`, inactive: 6.7%; under `CC(NC(=O)CCl)c1ccccc1Br` (centres undefined), inactive: -6.68%.
Consider `CC(C)C(=O)NC(=S)Nc1ccccc1N1CCN(C(=O)c2ccc(Cl)cc2)CC1`, for which the “growth rescue (activation)” value was inactive: -1.24%.
Take `N#C/C(=C\c1ccccc1O)C(=O)Nc1cccnc1`: the “growth rescue (activation)” value was inactive: 27.6%.
On to `COCCN(CCOC)C(=O)CN1C(=O)NC2(CCCc3sccc32)C1=O` (centres undefined), for which the “growth rescue (activation)” value was inactive: 5.82%.
Consider `COCc1nnc(NC(=O)c2ccc(OC)cc2OC)s1`, for which the “growth rescue (activation)” value was inactive: 7.16%.
For `Clc1ccc(OCc2cn3cccnc3n2)c2ncccc12`, the “growth rescue (activation)” value was inactive: 23.8%.
On to `COc1cc(/C=N/NC(=O)CN2CCOCC2)ccc1OCc1ccccc1`, for which the “growth rescue (activation)” value is inactive: 24.9%.
Consider `COc1cc(NC(=S)NCCCN2CCOCC2)cc(OC)c1OC`, for which the “growth rescue (activation)” value is inactive: 2.84%.
As for `CCCN1C(=O)C(O)(CC(=O)c2ccc(C(C)C)cc2)c2ccccc21` (centres undefined), the “growth rescue (activation)” value is inactive: 8.6%.
Consider `Cn1c(NCc2ccccc2F)nc2cc(-c3ccccc3)sc2c1=O`, for which the “growth rescue (activation)” value is inactive: 21.6%.
On to `CC1(C)CC(=O)c2sc(NC(=O)C(C)(C)C)nc2C1`, for which the “growth rescue (activation)” value is inactive: 0.855%.
`O=[N+]([O-])c1ccc(OCC(O)CN(C2CCCCC2)C2CCCCC2)cc1` (centres undefined): the “growth rescue (activation)” value was inactive: 10.9%.
As to `CC(=O)Nc1ccc(NC(=O)COc2ccc(S(=O)(=O)N3CCCC3)cc2C)cc1`, the “growth rescue (activation)” value was inactive: -9.43%.
Under `CN(Cc1cn[nH]c1-c1ccc2c(c1)OCO2)C1CCOCC1` stands inactive: -20%.
On to `Cn1c(N)c(C(=O)COC(=O)COc2ccc(Cl)cc2Cl)c(=O)n(C)c1=O`, for which the “growth rescue (activation)” value is inactive: 8.55%.
For the compound `C(=N\N(c1ccccc1)c1ccccc1)/c1ccc(N2CCOCC2)s1`, the “growth rescue (activation)” value is inactive: 22.7%.
The same measure for `O=C(NCc1ccc(F)cc1)c1cc(-c2ccncc2)nc2ccccc12`: inactive: 2.52%; for `COc1ccc(N(C(=O)c2ccc(Cl)cc2)C2=CC3CCC(C2)N3C)cc1` (centres undefined): inactive: 2.23%.
As to `CC(=O)C1C(c2ccc(Br)cc2)c2c(noc2C)CC1(C)O` (centres undefined), the “growth rescue (activation)” value is inactive: 20.4%.
On to `CC(C)OC(=O)CSc1nnc(-c2ccc([N+](=O)[O-])cc2)o1`, for which the “growth rescue (activation)” value is inactive: 13.5%.
As for `CN(CC(=O)NCCc1ccc(S(N)(=O)=O)cc1)S(=O)(=O)/C=C/c1ccccc1`, the “growth rescue (activation)” value is inactive: -3.53%.
Consider `COc1ccccc1NC(=O)/C=C1\SCC(=O)N1C`, for which the “growth rescue (activation)” value was inactive: 17.3%.
Take `COc1ccc(Cl)cc1NC(=O)c1cc(-c2cc(C)ccc2O)n[nH]1`: the “growth rescue (activation)” value was inactive: 25.6%.
With `CCN(CC)C(=O)CSc1nc(OC)cc(=O)[nH]1`, the “growth rescue (activation)” value was inactive: 11.9%.
As to `O=C(O)C1C2C=CC(C2)C1C(=O)N1CCN(CCO)CC1` (centres undefined), the “growth rescue (activation)” value is inactive: 15.6%.
As to `N#Cc1ccc(OCC(=O)Nc2ccncc2)cc1`, the “growth rescue (activation)” value was inactive: -56.9%.
With `COC(=O)C1=C(C)NC(=O)/C1=C/c1ccc(CNS(=O)(=O)c2ccc(C)cc2)o1`, the “growth rescue (activation)” value is inactive: -3.58%.
As for `CCN(CC)S(=O)(=O)c1ccc(N2CCCC2)c(NC(=O)c2c(-c3ccccc3)noc2C)c1`, the “growth rescue (activation)” value is inactive: 13.8%.
The same measure for `O=C1NC2(CCCC2)C(=O)N1Cc1cc(=O)n2ccsc2n1`: inactive: -8.99%.
As to `CC(=O)Nc1ccc(NC(=O)C(C)N(C)CC(=O)Nc2ccccc2Br)cc1` (centres undefined), the “growth rescue (activation)” value is inactive: 2.86%.
Regarding `NC(=O)Nc1ccc(C(=O)OCC(=O)c2c[nH]c3ccccc23)cc1`, the “growth rescue (activation)” value was inactive: 2.63%.
The same measure for `CO/N=C/CC(=O)c1ccc(OC)cc1`: inactive: 4.44%; for `CC(=O)NC(c1ccccc1)c1c(O)ccc2ccccc12` (centres undefined): inactive: 12.6%.
In the case of `Cc1ccc(OCCN(C)C(=O)c2cc(COc3ccc(F)cc3F)on2)cc1`, the “growth rescue (activation)” value is inactive: 14.5%.
For the compound `CCC(CC)C(=O)Nc1c2c(nn1-c1ccc(F)cc1)CS(=O)(=O)C2`, the “growth rescue (activation)” value is inactive: 4.36%.
In the case of `CC1CCCC(C)N1C(=O)CSc1nc2c(c(=O)n(C)c(=O)n2C)n1C` (centres undefined), the “growth rescue (activation)” value is inactive: -1.28%.
As for `CN(C)C(CNC(=S)Nc1cccc(Cl)c1)c1cccnc1` (centres undefined), the “growth rescue (activation)” value is inactive: -1.99%.
Consider `Cc1ccc(CN2CCNC(=O)C2CC(=O)N(C)C(C2CC2)C2CC2)o1` (centres undefined), for which the “growth rescue (activation)” value was inactive: -6.44%.
As for `Cc1ccc(CN2CCN(Cc3ccc(O)cc3)CC2CCO)o1` (centres undefined), the “growth rescue (activation)” value was inactive: 7.31%.
The same measure for `COCC1CCCN(Cc2cn[nH]c2-c2cc3ccccc3o2)C1` (centres undefined): inactive: 0.29%.
Regarding `CCOC(=O)C(C)Sc1nc2c(cnn2-c2ccc(F)cc2)c(=O)[nH]1` (centres undefined), the “growth rescue (activation)” value was inactive: 6.61%.
For `Cc1cc(C)c2nc(SCC(=O)Nc3cc(C)on3)c(C)cc2c1`, the “growth rescue (activation)” value is inactive: -7.97%.
Take `Cc1ccccc1-c1cc2nc(NCCOc3ccccc3)n(C)c(=O)c2s1`: the “growth rescue (activation)” value was inactive: 11.6%.
`C=CCN1C(=O)C(CCCC)NC1=S` (centres undefined): the “growth rescue (activation)” value is inactive: 11.2%.
As for `COc1ccc(NC(=O)N2CCC(CO)(CC3CCCCO3)CC2)c(OC)c1` (centres undefined), the “growth rescue (activation)” value was inactive: 29.6%.
Under `COCCCN1C(=O)C(=O)/C(=C(/O)c2ccc(OC)cc2)C1c1ccc(O)c(OC)c1` (centres undefined) stands inactive: -11.1%; under `CCCC(C)NC(=O)COc1ccc(S(=O)(=O)N2CCCC2)cc1` (centres undefined), inactive: 7.49%; under `Cc1ccc(CNCCCSc2ncccn2)cc1`, inactive: -1.13%.
Turning to `COCCNC(=O)C1CCCN(C(=O)c2ccc3sccc3c2)CC1` (centres undefined), the “growth rescue (activation)” value was inactive: -0.657%.
On to `CCN(CC)S(=O)(=O)c1ccc(N2CCOCC2)c(NS(=O)(=O)c2ccc(C)c(C)c2)c1`, for which the “growth rescue (activation)” value is inactive: -5.4%.
Under `O=C1/C(=C/c2cccs2)Cc2ccccc21` stands inactive: 35.1%.
As for `CC(C)CNC(=O)c1c(F)c(F)c(F)c(F)c1F`, the “growth rescue (activation)” value was inactive: 6.32%.
Under `COc1ccccc1NS(=O)(=O)c1cc(NC(=O)c2ccccc2[N+](=O)[O-])ccc1N1CCOCC1` stands inactive: -3.55%; under `O=C(NNC(=O)c1ccc(S(=O)(=O)N2CCCCC2)cc1)c1ccc(F)cc1`, inactive: 1.52%.
Under `Cc1ccc(S(=O)(=O)N(CC(=O)Nc2ccccc2-c2ccccc2)c2ccc(C)cc2C)cc1` stands inactive: -2.17%.
For `Cc1ccc(NC(=S)N(Cc2cccc(Br)c2)CC2CCC(C(=O)O)CC2)cc1` (centres undefined), the “growth rescue (activation)” value is inactive: 13.7%.
Turning to `Cc1cc(=O)[nH]c(N2CCCC2)n1`, the “growth rescue (activation)” value was inactive: 4.1%.
On to `COc1ccc(/C=N/NC(=O)c2ccncc2)cc1OC`, for which the “growth rescue (activation)” value is inactive: -4.4%.
